According to PubChem BioAssay AID540317 (National Center for Advancing Translational Sciences (NCATS), 2011):
The whole screen tested about 390,000 compounds, of which about 2,200 (0.56%) were called active. The shares of active, inactive and inconclusive entries below differ from those in the screen. Calls come from the whole dose curve; as a rule, active = well fitted inhibition curve with a large enough effect; inconclusive = small, poorly fitted or top-dose-only effect; inactive = no such curve, though single readings can be large or run the other way. Potencies beside an inconclusive call are fits to weak or partial responses and may not hold up.

molecular target: Chromobox protein homolog 1 (Homo sapiens) (UniProt P83916); assay: HTS for Inhibitors of HP1-beta Chromodomain Interactions with Methylated Histone Tails; conditions: AlphaScreen HP1-beta / biotin-H3K9me3 peptide binding; series mostly up to 114 µM; activity change, negative = inhibition: at the top concentration; note: nearly all actives have a fitted effect of over 70% in size
UniProt P83916, sequence (P83916 whole entry, looked up): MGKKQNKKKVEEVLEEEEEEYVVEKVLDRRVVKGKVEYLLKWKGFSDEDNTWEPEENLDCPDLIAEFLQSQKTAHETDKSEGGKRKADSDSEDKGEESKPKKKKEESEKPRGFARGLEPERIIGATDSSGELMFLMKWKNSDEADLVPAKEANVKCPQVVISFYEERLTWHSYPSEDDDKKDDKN
Summary of the method: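 AlphaScreen: HP1-beta (50 nM) preformed 30 min with biotin-H3(1-18)K9me3 peptide (50 nM) in PBS pH 7.4, 0.01% Tween-20. Compound added for 30 min at RT, then streptavidin donor/nickel chelate acceptor beads (10 ug/mL) for 30 min.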
Potency is the fitted concentration of half-maximal effect; tags give direction and shape of the fitted curve.

| SMILES | Potency | activity change, negative = inhibition |
| --- | --- | --- |
| CCOC(=O)c1cnc2ccc(C)cc2c1Nc1ccc(N2CCOCC2)cc1 | active: 22.4 µM | – |
| S=c1[nH]nc2ccccn12 | inconclusive: 31.6 µM [inhibitor, full curve] | – |
| Cc1cccc(/C=C2\CCC(=C3SCCCS3)C2=O)c1 | active: 15.8 µM | – |
| COc1ccccc1N1CCN(CC(=O)Nc2ccc3c(c2)OCCO3)CC1 | inconclusive: 20 µM [inhibitor, full curve] | – |
| CNC(=S)N(Cc1ccc(OC)cc1)Cc1cc2cccc(C)c2[nH]c1=O | inconclusive: 5.62 µM [inhibitor, full curve, poor fit] | – |
| COc1ccc(C2CC(c3ccccc3C)n3nc(N)nc3N2)cc1 (centres undefined) | – | inactive: -12.5% |
| C(=N\N1CCN(C2c3ccccc3-c3ccccc32)CC1)/c1ccccn1 | inconclusive: 22.4 µM [inhibitor, full curve] | – |
| COC(=O)c1cc(S(=O)(=O)N2CCCCC2)c[nH]1 | inconclusive: 20 µM [inhibitor, full curve] | – |
| CCCCn1c(N)c(N(CC(C)C)C(=O)CCS(=O)(=O)c2ccc(C)cc2)c(=O)[nH]c1=O | – | inactive: 23% |
| COc1cc(C(=O)OCC#N)ccc1OCc1c(C)noc1C | – | inactive: 46.5% |
| O=C(/C=C/c1ccc([N+](=O)[O-])cc1)N(c1ccccn1)C1CCCCC1 | inconclusive: 56.2 µM [inhibitor, single point] | – |
| Cc1c(C)n(C)c2ccc(C(=O)Nc3cccc4ccccc34)cc12 | inconclusive: 17.8 µM [inhibitor, partial curve, poor fit] | – |
| COc1cc(CNC2CCCc3ccccc32)cc(OC)c1OC (centres undefined) | inconclusive: 70.8 µM [inhibitor, single point] | – |
| C=CCNCCOc1ccc(C(C)(C)c2ccccc2)cc1 | inconclusive: 50.1 µM [inhibitor, partial curve] | – |
| Cn1c(-c2ccccc2)cnc1NCc1ccc(-c2ccccc2)cc1 | inconclusive: 14.1 µM [inhibitor, full curve, poor fit] | – |
| CCN1CCN(C(=O)c2ccc3c(c2)N(Cc2ccc(C)cc2)CCS3)CC1 | – | inactive: -6.34% [at 57 µM] |
| COC(=O)Cc1cc(=O)n(-c2nc3ccccc3[nH]2)[nH]1 | – | inactive: 26.5% |
| COc1cc2[nH]c(=S)nc(NCc3cccs3)c2cc1OC | – | inactive: 29.1% |
| Cc1cc(C)c2sc(N(CCCN(C)C)C(=O)c3ccc(S(=O)(=O)N(C)C4CCCCC4)cc3)nc2c1 | inconclusive: 31.6 µM [inhibitor, partial curve] | – |
| O=C(/C=C/Nc1ccc(Nc2ccccc2)cc1)c1cccs1 | inconclusive: 35.5 µM [inhibitor, partial curve] | – |
| O=C(Nc1nnc(CSCc2ccccc2F)s1)c1cccc([N+](=O)[O-])c1 | – | inactive: 32% |
| CN=C1N[C@H](c2ccccc2)N(c2ccccc2)S1 | inconclusive: 10 µM [inhibitor, full curve, poor fit] | – |

| SMILES | Potency | activity change, negative = inhibition |
| --- | --- | --- |
| Cc1cc(S(=O)(=O)Nc2ccc(-c3ccc(N4CCCCC4)nn3)cc2)c(C)cc1Cl | inconclusive: 6.31 µM [inhibitor, single point] | – |
| O=C1C(Nc2ccc(O)cc2)=C/C(=N/S(=O)(=O)c2cccs2)c2ccccc21 | inconclusive: 7.94 µM [inhibitor, partial curve] | – |
| O=CN1CCN(C(C(=O)NC2CCCC2)c2cc3c(cc2[N+](=O)[O-])OCO3)CC1 (centres undefined) | inconclusive: 89.1 µM [inhibitor, single point] | – |
| CCOc1ccc(CCNC(=O)COC(=O)c2cccc(S(=O)(=O)N3CCCC3)c2)cc1OCC | – | inactive: 18.3% |
| C=CC#CC[N+]1(CC#Cc2ccccc2)CCOCC1 | active: 35.5 µM | – |
| Cc1cccc(C)c1NC(=S)N/N=C1\CC2CC=CC12 (centres undefined) | inconclusive: 14.1 µM [inhibitor, full curve, poor fit] | – |
| OC(C#Cc1ccccn1)c1cccs1 (centres undefined) | inconclusive: 56.2 µM [inhibitor, partial curve, poor fit] | – |
| S=C(c1ccc2c(c1)OCO2)N1CCN(c2cccc(Cl)c2)CC1 | inconclusive: 11.2 µM [inhibitor, partial curve] | – |
| O=C(c1ccccc1F)N1CCN(c2ccccc2F)CC1 | inconclusive: 39.8 µM [inhibitor, single point] | – |
| CC(=O)Nc1ccc(C2Sc3ccccc3NC3=C2C(=O)c2ccccc23)cc1 (centres undefined) | inconclusive: 14.1 µM [inhibitor, full curve, poor fit] | – |
| CC(CC(=O)NCc1ccc(Cl)cc1)c1ccccc1 (centres undefined) | – | inactive: 35.8% |
| O=C(CCCc1c[nH]c2ccccc12)NCCc1c[nH]c2ccccc12 | inconclusive: 70.8 µM [inhibitor, partial curve] | – |
| O=C(NC(NC(=S)Nc1c(Cl)cccc1Cl)C(Cl)(Cl)Cl)c1cccc([N+](=O)[O-])c1 (centres undefined) | inconclusive: 20 µM [inhibitor, full curve] | – |
| CC1Cc2ccccc2N1C(=S)NC(=O)c1ccco1 (centres undefined) | inconclusive: 17.8 µM [inhibitor, full curve] | – |
| N#C/C(=C(/O)c1ccccc1F)c1nc2cc(C(F)(F)F)ccc2s1 | inconclusive: 89.1 µM [inhibitor, single point] | – |
| CCCCCC(O)(c1ccccc1)C(CN1CCOCC1)c1ccccc1 (centres undefined) | – | inactive: 32.8% |
| O=S(=O)(c1ccc(Cl)c(C(F)(F)F)c1)N1CCN(CC(O)COCC2CCCO2)CC1 (centres undefined) | inconclusive: 35.5 µM [inhibitor, partial curve] | – |
| CN(C(=O)CSc1ncnc2scc(-c3ccccc3)c12)C1CCS(=O)(=O)C1 (centres undefined) | inconclusive: 89.1 µM [inhibitor, single point] | – |
| COC(=O)CSC1=C(C#N)C(=O)NC2(CCCCC2)S1 | inconclusive: 50.1 µM [inhibitor, partial curve, poor fit] | – |
| COc1ccc(N2CCN(CC(=O)Nc3cc(C)on3)CC2)cc1 | inconclusive: 10 µM [inhibitor, full curve, poor fit] | – |
| COc1ccc(C(c2nnnn2Cc2cccs2)N2CCN(c3ccc(F)cc3)CC2)cc1OC (centres undefined) | inconclusive: 25.1 µM [inhibitor, full curve] | – |
| COc1ccc(Nc2ncc(C(=O)N3CCN(c4cccc(Cl)c4)CC3)c3ccccc23)cc1 | – | inactive: 4.86% |
